# Laboratory results as given in PubChem BioAssay AID1645882 (National Center for Advancing Translational Sciences (NCATS), 2021).
# Screen size: about 16,000 compounds; about 120 (0.75%) were called active. Roughly 4% stayed inconclusive and do not appear here. The call rests on the fitted dose curve; in most records, active means well fitted inhibition curve with a large enough effect; inconclusive means small, poorly fitted or top-dose-only effect; inactive means no such curve, though single readings can be large or run the other way. The list shows a part of the results.
# Biological target: Rap guanine nucleotide exchange factor 3 (Homo sapiens) (UniProt O95398)
# Assay: Validation qHTS for antagonist of cAMP-regulated guanine nucleotide exchange factor 3 (EPAC1);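 further: plate controls were DMSO for no effect and ATA control for full effect; nearly all actives have a fitted effect of over 75% in size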
# Settings: EPAC1 Rap1B-BODIPY-GDP exchange, fluorescence; series mostly up to 150 µM; activity change, negative = inhibition: at the top concentration
# How it was run: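 EPAC1 (100 nM) mixed with 250 nM RAP1B-BODIPY-GDP and 50 uM GDP; compounds in concentration series, 5 min at room temperature. Fluorescence (ex 480/em 540 nm) read every 5 min for 30 min; normalized to ATA control and DMSO.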
# Chain of UniProt O95398 (O95398 whole entry, looked up): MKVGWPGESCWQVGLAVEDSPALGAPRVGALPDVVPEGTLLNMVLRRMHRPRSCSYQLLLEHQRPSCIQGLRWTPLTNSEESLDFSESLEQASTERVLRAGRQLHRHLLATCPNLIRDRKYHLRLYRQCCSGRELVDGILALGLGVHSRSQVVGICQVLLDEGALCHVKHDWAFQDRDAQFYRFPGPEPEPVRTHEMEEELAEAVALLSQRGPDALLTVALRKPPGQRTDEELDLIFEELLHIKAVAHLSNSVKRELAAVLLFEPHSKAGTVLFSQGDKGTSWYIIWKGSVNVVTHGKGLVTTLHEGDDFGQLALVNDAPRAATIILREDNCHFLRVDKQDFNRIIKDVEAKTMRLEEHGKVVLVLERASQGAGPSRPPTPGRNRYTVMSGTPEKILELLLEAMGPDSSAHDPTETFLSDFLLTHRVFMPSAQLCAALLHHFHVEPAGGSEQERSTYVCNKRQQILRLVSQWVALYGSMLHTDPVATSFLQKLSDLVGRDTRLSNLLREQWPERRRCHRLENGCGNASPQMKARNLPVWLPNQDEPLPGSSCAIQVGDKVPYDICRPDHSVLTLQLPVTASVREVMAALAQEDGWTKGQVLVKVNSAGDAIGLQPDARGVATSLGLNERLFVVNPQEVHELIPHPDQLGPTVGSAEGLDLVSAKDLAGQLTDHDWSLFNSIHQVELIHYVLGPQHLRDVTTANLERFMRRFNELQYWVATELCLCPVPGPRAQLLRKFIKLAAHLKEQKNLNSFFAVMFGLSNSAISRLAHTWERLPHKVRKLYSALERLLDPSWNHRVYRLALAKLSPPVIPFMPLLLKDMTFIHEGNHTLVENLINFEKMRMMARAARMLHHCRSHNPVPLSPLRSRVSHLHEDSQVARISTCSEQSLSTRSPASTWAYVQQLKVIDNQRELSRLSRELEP
row,Structure (SMILES),"activity change, negative = inhibition"
1,COc1cccc(-c2cncnc2NCc2ccccc2)c1,inactive: 18.9%
2,NC[C@H]1O[C@H](O[C@H]2[C@H](O)[C@@H](O[C@H]3O[C@H](CO)[C@@H](O)[C@H](N)[C@H]3O)[C@H](N)C[C@@H]2N)[C@H](O)[C@@H](O)[C@@H]1O,inactive: 18.1% [at 75.8 µM]
3,CC[C@H]1OC(=O)C[C@@H](O)[C@H](C)[C@@H](O[C@@H]2O[C@H](C)[C@@H](O[C@H]3C[C@@](C)(O)[C@@H](O)[C@H](C)O3)[C@H](N(C)C)[C@H]2O)[C@@H](CC=O)C[C@@H](C)C(=O)/C=C/C(C)=C/[C@@H]1CO[C@@H]1O[C@H](C)[C@@H](O)[C@@H](OC)[C@H]1OC,inactive
4,c1cnc2cc3c(cc2n1)C1CNCC3C1,inactive: 30.1% [at 320 µM]
5,CCO[C@H](Cc1ccc(OCCc2ccc(OS(C)(=O)=O)cc2)cc1)C(=O)O,inactive: 1.31%
6,COc1cc(O)ccc1CN1CCc2nnc(C(C)NC(=O)c3cc(F)ccc3F)n2CC1 (centres undefined),inactive: 18.9%
7,COc1ccccc1-c1ccnc(-n2ncc(C(=O)N3CCCCC3c3cccnc3)c2C)n1 (centres undefined),inactive: 4.03%
8,COc1ccccc1CNc1cc(-c2ccccc2C(F)(F)F)ncn1,inactive: -26.4%
9,Cc1cc(C)c(NC(=O)C[C@H](CC(=O)O)c2cccc3ccccc23)c(C(=O)N2CCC3(CCCC3)CC2)c1,inactive: 17.2%
10,CC(C)ON([C@@H](C(=O)NO)C(C)C)S(=O)(=O)c1ccc(-c2ccccc2)cc1,inactive: -2.03% [at 75.8 µM]
11,CN(C)c1ncc2nc(-c3cccs3)c(=O)n(-c3ccccc3)c2n1,inactive: 12.7%
12,CC(C)CCCC(C)C1CCC2C3CC=C4CC(O)CC[C@@]4(C)C3CC[C@@]12C (some centres undefined),inactive: 9.17%
13,CCc1ccc2c(-c3cccc(Cl)c3)nc(=O)n(CC)c2n1,inactive
14,O=C(CCCCCCC(=O)Nc1ccccc1)NO,inactive
15,CCCCCCCN(c1ccccc1)C1C[C@H]2CCCC(=O)N3CC[C@@H](C1)[C@@H]23 (some centres undefined),inactive: -4.64%
16,Cc1cccc(C(=O)NCC2Cc3cc(F)cc(-c4cnccn4)c3O2)n1 (centres undefined),inactive: 10.5%
17,CCOC(=O)C[C@H]1c2cc(F)ccc2S(=O)(=O)N1Cc1cc(OC)c(OC)c(OC)c1,inactive: 12.1%
18,CCN1CCCC1CNCc1cc2ccc(SC)cc2nc1-c1cc(OC)ccc1OC (centres undefined),inactive: 14.3%
19,COc1cc(=O)n2c(c1C(=O)N(C)Cc1cscn1)CCN(C(=O)c1cccc(C)c1C)CC2,inactive: 8.58%
20,COc1ccccc1CNc1ccnc(-c2cccc(NS(C)(=O)=O)c2)n1,inactive: 2.72%
21,O=c1cc(-c2ccccc2O)oc2cc(O)ccc12,inactive: 2.48%
22,CC1OC(n2cc(F)c(=O)[nH]c2=O)C(O)C1O (centres undefined),inactive: 6.9%
23,CCCCCN(CCCCC)C(=O)C(CCC(=O)O)NC(=O)c1ccc(Cl)c(Cl)c1 (centres undefined),inactive
24,N#CCCn1c(=O)c(-c2ccccc2)nc2cnc(Nc3ccccc3)nc21,inactive: 12.1%
